According to PubChem BioAssay AID488969 (Vanderbilt High Throughput Screening Facility, 2010):
Over roughly 110,000 compounds, “z-score” has its median near -0.1; the highest 2% begin near 2. The list shows a part of the results. Active and inactive are the calls of the source.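 Rule for the calls: active = z-score in the third read window above 3 or below -3; inactive = the rest.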

The compounds below were run against Metabotropic glutamate receptor 8 (Rattus norvegicus) (UniProt P70579) (assay: mGluR8 Gi/Go-coupled signaling modulation – cell-based, rat, thallium flux, HTS, primary screen (AID 488969)). Details: HEK293 rat mGluR8, GIRK (G protein-gated inwardly rectifying potassium channel) thallium flux, FluoZin2; at 10 µM; stronger effect = higher value; submaximal glutamate (EC20) added with thallium.
Sequence of UniProt P70579 (P70579 whole entry, looked up): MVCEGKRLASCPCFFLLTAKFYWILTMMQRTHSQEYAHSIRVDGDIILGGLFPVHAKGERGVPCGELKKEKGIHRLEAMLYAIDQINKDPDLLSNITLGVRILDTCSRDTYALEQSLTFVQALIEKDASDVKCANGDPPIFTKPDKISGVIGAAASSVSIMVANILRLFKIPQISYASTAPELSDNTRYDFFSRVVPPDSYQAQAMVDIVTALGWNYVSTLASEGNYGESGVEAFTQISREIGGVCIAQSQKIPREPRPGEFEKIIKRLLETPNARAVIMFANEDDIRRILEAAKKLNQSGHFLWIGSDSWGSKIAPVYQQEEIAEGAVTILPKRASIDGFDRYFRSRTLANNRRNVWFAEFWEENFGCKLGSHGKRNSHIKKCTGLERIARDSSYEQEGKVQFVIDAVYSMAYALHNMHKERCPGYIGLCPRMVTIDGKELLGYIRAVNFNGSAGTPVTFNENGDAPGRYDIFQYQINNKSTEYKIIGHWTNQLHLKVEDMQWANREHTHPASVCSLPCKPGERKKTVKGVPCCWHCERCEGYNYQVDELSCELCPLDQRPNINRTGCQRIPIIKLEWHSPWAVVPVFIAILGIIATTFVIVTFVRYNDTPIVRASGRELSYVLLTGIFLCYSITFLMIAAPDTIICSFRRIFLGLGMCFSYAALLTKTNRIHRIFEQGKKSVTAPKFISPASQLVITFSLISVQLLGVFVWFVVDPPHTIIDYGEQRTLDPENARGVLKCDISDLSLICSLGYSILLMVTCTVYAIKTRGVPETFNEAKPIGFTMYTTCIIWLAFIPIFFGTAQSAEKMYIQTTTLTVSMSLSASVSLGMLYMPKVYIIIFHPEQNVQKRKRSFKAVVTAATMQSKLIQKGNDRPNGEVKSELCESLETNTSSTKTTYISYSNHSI
In the case of CCOC(=O)c1[nH]c(C)c(C(=O)NC2CCCCCC2)c1C, the z-score is reported as 0.781. CCOc1ccc(NS(=O)(=O)c2ccc(NS(=O)(=O)c3ccc(SC)cc3)cc2)cc1 showed a z-score of -0.428. With O=C1NCCCC1C(=O)NCCN1C(=O)CCC1=O (stereo not given) the z-score was -0.0595. Work on CCC(=O)Oc1ccc2c(C)c(Cl)c(=O)oc2c1 yielded a z-score of 0.414. COc1cccc(C(=O)/C=C/Nc2ccc(S(=O)(=O)Nc3cccc(C(C)=O)c3)cc2)c1 was tested, and the z-score was -0.0714. For COc1ccc(/C=N/NC(=O)C(=O)NCC2CCCO2)cc1 (stereo not given), the z-score was -0.0895. In the case of CCOC(=O)c1cc(CC)sc1NC(=O)c1ccc(N2CCOCC2)c([N+](=O)[O-])c1, the z-score is reported as 1.03. Work on O=CN(Cc1ccco1)C1(C(=O)NC2CCCCC2)CCCCC1 yielded a z-score of 0.612. In the case of CSc1nncc(=O)[nH]1, the z-score is reported as -0.0695. In the case of COC(=O)c1cnn2c(C(F)(F)F)cc(-c3ccccc3)nc12, the z-score is reported as -0.00832. Work on CC(C)C1Oc2ccccc2N(CC(=O)N(Cc2ccncc2)Cc2ccco2)C1=O (stereo not given) yielded a z-score of -1.21. For COc1cc(/C=C2/SC(=S)N(CC(=O)NC(C)(C)C)C2=O)cc(OC)c1OC, the z-score was -0.148. Compound N#Cc1ccc(C(=O)Nc2cc(S(=O)(=O)Nc3ccc(Cl)cc3)ccc2N2CCCCC2)cc1 has a z-score of -0.309. COC(=O)c1ccccc1Oc1nc(Cl)cc(OC)n1 was tested, and the z-score was -0.22. With O=C(COc1ccccc1)Nc1ccc2c(c1)nc1n2CCSC1 the z-score was 0.442. With COc1ccc(C2=NN(CC(=O)NCc3ccco3)C(=O)CC2)cc1 the z-score was 0.0232. O=C(COC(=O)CCc1ccccc1)NC(c1ccccc1)c1ccccc1 showed a z-score of 0.0993. CCN(CC)S(=O)(=O)c1ccc(C(=O)N2CCN=C2SCc2cccnc2)cc1 showed a z-score of 0.0527. In the case of Cc1ccsc1C(=O)Nc1ccccc1N1CCOCC1, the z-score is reported as -0.204. COc1ccc(/C=N/NC(=O)c2cc(-c3ccccc3OC)nc3ccccc23)cc1COC(C)=O showed a z-score of -0.25. Compound Cc1ccc(S(=O)(=O)NC(C)C(c2cccs2)N2CCN(c3ccccc3)CC2)cc1 (stereo not given) has a z-score of -0.115. Work on CCOC(=O)C1CCN(CC(=O)c2c(C)[nH]c3ccccc23)CC1 yielded a z-score of 0.0528. With Cc1cc(C)cc(Oc2coc3cc(OC(=O)c4cccs4)ccc3c2=O)c1 the z-score was -0.0527. CN(C)c1cccc(NC(=O)CCc2ccccc2)c1 gave a z-score of -0.123. Cc1cccc(N2CCN(C(=O)c3cnn4c(C(F)F)cc(-c5ccccc5)nc34)CC2)c1C was tested, and the z-score was -0.067. With Cc1ccc(/C=N/NC(=O)CSCc2ccc(Cl)cc2)cc1 the z-score was 0.781. In the case of O=C1CC(c2ccccc2)n2nc(NS(=O)(=O)c3ccccc3)nc2N1 (stereo not given), the z-score is reported as -0.413. CCOc1ccc(C(=O)Nc2cc(OC)ccc2OC)cc1 showed a z-score of -0.319. O=C(NCCO)/C(=C\c1cccs1)NC(=O)c1cccs1 showed a z-score of -0.122. For COC(=O)c1c(N)sc(C(=O)N2CCOCC2)c1C, the z-score was 0.428. c1ccc2[nH]c(CSc3nc4ccccc4o3)nc2c1 showed a z-score of 0.29. Work on O=C(c1ccc(Cl)c(S(=O)(=O)N2CCCCCC2)c1)N1CCN(c2ccccn2)CC1 yielded a z-score of -0.577. Cc1csc(NC(=O)CSc2nnc(NC(=O)COc3ccc(Cl)cc3)s2)n1 was tested, and the z-score was -0.254. Cc1cc(NC(=O)CSC2=Nc3ccccc3C3=NC(Cc4ccccc4)C(=O)N23)n[nH]1 (stereo not given) was tested, and the z-score was -0.232. For Cc1ccccc1NC(=S)N(CCCN1CCC(C)CC1)Cc1ccco1, the z-score was -0.543. Work on CC1(C)OC(=O)C(=CNC(CCC(N)=O)C(=O)O)C(=O)O1 (stereo not given) yielded a z-score of -0.00703. Compound COc1ccc2c(c1)C(=NNC(=O)c1ccccn1)c1cc(OC)ccc1-2 has a z-score of 0.188. O=[N+]([O-])c1cccc(-c2nnc3ccc4ccccc4n23)c1 showed a z-score of -0.335. For CC1(C)CC(=O)C2=C(C1)NCN(Cc1ccccc1)C2, the z-score was 0.0758. CCOC(=O)C1=C(C)C(c2ccccc2OC)NC(=S)N1 (stereo not given) was tested, and the z-score was 0.345. Cn1c(=O)c2c(nc(OCC3COC(C)(C)O3)n2Cc2ccccc2F)n(C)c1=O (stereo not given) showed a z-score of -0.158. COC(=O)c1cnn(-c2cc(Oc3cccc(C)c3)ncn2)c1N showed a z-score of 0.309. With N#Cc1ncc(-c2ccc3c(c2)OCCOCCOCCOCCO3)nc1C#N the z-score was 0.113. Compound COc1ccc(-c2nc(CCNC(=O)c3ccc(Br)o3)cs2)cc1 has a z-score of -0.301. Compound c1cncc(-c2nc(N3CCOCC3)c3ccccc3n2)c1 has a z-score of 0.113. O=C(NCCC1=CCCCC1)C1CCN(S(=O)(=O)c2ccc(-n3cnnn3)cc2)CC1 was tested, and the z-score was 0.197. c1ccc2[nH]c(CSc3nc4ccccc4s3)nc2c1 gave a z-score of -0.134. COc1nc(N/N=C/c2ccc(-c3cccc([N+](=O)[O-])c3)o2)nc(N2CCOCC2)n1 gave a z-score of -0.387. CCOC(=O)N1CCC(O)(c2cc(C)c(C)cc2C)CC1 showed a z-score of -0.0446. CSc1ccccc1C(=O)NC1CCCCC1 showed a z-score of 0.226. C=CCOC(=O)C1=C(C)NC(=O)NC1/C=C/c1ccccc1 (stereo not given) gave a z-score of -0.0496. In the case of COc1ccc(C2CC(=O)c3c(C)nc(N4CCN(c5ccccc5)CC4)nc3C2)cc1 (stereo not given), the z-score is reported as -0.418. Work on OC(CNCCc1ccccc1)c1ccccc1 (stereo not given) yielded a z-score of 0.907. COc1cc2nc(NC(=O)c3ccc(Cl)cc3)[nH]c(=O)c2cc1OC showed a z-score of -0.173. Compound O=C(c1cnsn1)N1CCN(c2ccccn2)CC1 has a z-score of -0.358. CCCCCCOc1ccc(-c2ccc(C#N)cn2)cc1 gave a z-score of 0.14. O=C(Cc1ccccc1)N/N=C/c1ccccc1Cl gave a z-score of -0.243. Fc1ccc(NC(=S)NCCc2ccc(Cl)cc2)cc1 was tested, and the z-score was 0.219. COc1ccc2c(c1)c(C(=O)CN1CCC3(CC1)OCCO3)c(C)n2C showed a z-score of 0.936. Cc1noc(N)c1C(=O)Nc1ccc(F)c(Cl)c1 was tested, and the z-score was 0.87. CCn1c(-c2cccc(Br)c2)n[nH]c1=S showed a z-score of 2.35. O=C(Nc1ccc2c(c1)OCCO2)c1c(F)c(F)c(F)c(F)c1F was tested, and the z-score was 0.672. With CCOC(=O)COn1c(=O)c(-c2cc3ccccc3o2)[n+]([O-])c2ccccc21 the z-score was -0.101. In the case of O=C(NCc1ccco1)c1sc2cccc(F)c2c1Cl, the z-score is reported as -0.653. CCOC(=O)COc1cccc2c(=O)n(CC(=O)N3CCc4ccccc43)ccc12 gave a z-score of -0.265. In the case of Cc1ccc2c(c1)N(CC(=O)N(Cc1ccccn1)Cc1ccco1)C(=O)C(C(C)C)O2 (stereo not given), the z-score is reported as active: -3.18. CCCCOC(=O)CSc1n[nH]c(=O)[nH]c1=O showed a z-score of -0.957. With CCn1c(=O)c(C(=O)CN(C)Cc2cccc(OC)c2OC)c(N)n(Cc2ccccc2)c1=O the z-score was 0.608. O=C(O)CCN(CCC(=O)O)c1nnc(SCc2ccccc2)s1 showed a z-score of 0.676. COC(=O)c1c(-c2ccc3ccccc3c2)csc1NC(=O)Cc1ccc(OC)c(OC)c1 gave a z-score of 0.271. With CC(C)n1c(NCc2c[nH]c3ccccc23)nc2ccccc21 the z-score was -1.28. Cc1nc(SCC(=O)Nc2ccccc2C(F)(F)F)c(C#N)c(C)c1CC(=O)c1ccc(Br)cc1 gave a z-score of -0.15. In the case of CCCCCCn1c(SCC(=O)c2ccccc2)nc2c1c(=O)[nH]c(=O)n2C, the z-score is reported as 1.35. CN(Cc1ccccc1)c1oc(COc2ccccc2F)nc1C#N gave a z-score of -0.124. For O=[N+]([O-])c1nn(-c2cccc(Cl)c2)n(O)c1=NCc1cccnc1, the z-score was -0.0198. Work on COc1ccc(CCC(=O)N2c3ccccc3CC2C)cc1 (stereo not given) yielded a z-score of -0.45. CC(C)(C)C(=O)NC(=S)Nc1ccccc1C(=O)Nc1ccccc1 showed a z-score of -0.079. In the case of NC(Cc1ccc2nonc2c1)C(=O)O (stereo not given), the z-score is reported as 0.371. Compound CC(Sc1nnc(CNc2cccc3ccccc23)n1-c1ccccc1)C(=O)N/N=C/c1ccco1 (stereo not given) has a z-score of -0.17. In the case of CSc1nnc2c(n1)OC(c1ccc(C(=O)O)cc1)N(C(C)=O)c1ccccc1-2 (stereo not given), the z-score is reported as 0.0372. Cc1cc(=O)n2c(nc3ccccc32)[nH]1 was tested, and the z-score was -0.0225. With c1ccc(-n2nnnc2NC2CCCCCC2)cc1 the z-score was 0.167. In the case of CCOC(=O)c1[nH]c2cc(OC)c(OC)cc2c1NC(=O)c1nonc1C, the z-score is reported as 0.176. COC(=O)c1c(NC(=O)C2COc3ccccc3O2)sc2c1CCN(Cc1ccccc1)C2 (stereo not given) showed a z-score of 0.0786. O=c1c2cc(Cl)ccc2[nH]c(=S)n1Cc1ccco1 was tested, and the z-score was active: 16.1. O=C(CCN1C(=O)C2C3C=CC(C3)C2C1=O)Nc1ccc2c(c1)OCO2 (stereo not given) gave a z-score of 0.244. With COc1ccc(S(=O)(=O)Nc2ccc(O)c3ccccc23)cc1 the z-score was 0.394. Work on O=C(c1cnn2ccccc12)N(Cc1ccco1)C1CCCC1 yielded a z-score of -0.157. Compound CC(=O)NCCCc1nc2ccccc2n1Cc1ccccc1C has a z-score of -0.192. With COc1ccc(NC2=CC(c3cccc(OC)c3)N(c3ccc(OC)cc3)C2=O)cc1 (stereo not given) the z-score was -0.196. NC(=O)C1CCN(C(=O)CSc2nc3ccccc3s2)CC1 showed a z-score of -0.237. For Cc1ccccc1CS(=O)(=O)c1cn(CC(=O)N2CCC(C)CC2)c2ccccc12, the z-score was -0.0274. COCCn1c(-c2ccc(OC)cc2)nc2oc3cc(OC)ccc3c(=O)c2c1=O was tested, and the z-score was -0.0423. OCCn1c(C(F)(F)F)nc2ccccc21 was tested, and the z-score was -0.18. Compound Cc1cccc(Nc2nc3c(S(=O)(=O)c4ccccc4)nnn3c3ccccc23)c1C has a z-score of -0.185. CCN(c1cccc(C)c1)S(=O)(=O)c1cnc[nH]1 gave a z-score of 0.225. Clc1ccc(C(c2nnnn2C2CCCC2)N2CCN(Cc3ccncc3)CC2)cc1 (stereo not given) gave a z-score of -0.586. O=c1c(Cl)c(N2CCN(S(=O)(=O)c3ccc(F)cc3)CC2)cnn1-c1cccc(Cl)c1 was tested, and the z-score was -0.169. COc1ccc(OCC(=O)Nc2nc3ccccc3[nH]2)cc1 showed a z-score of 0.58. Cc1cc(Nc2ccc(C)c(F)c2)n2ncnc2n1 was tested, and the z-score was -0.265. Compound O=C(CSc1nc(C2CCCCC2)n(-c2ccccc2)n1)NCC(F)(F)F has a z-score of -0.201. For CC(C)(C)c1ccc(S(=O)(=O)n2c(CN3CCOCC3)nc3ccccc32)cc1, the z-score was 0.216. With Cc1sc(NC(=O)CCCC(=O)O)c(C#N)c1C the z-score was 0.257. In the case of O=C(c1ccccc1)N1CCC(c2nc3c(nnn3Cc3ccco3)c(=O)[nH]2)CC1, the z-score is reported as -0.734. Work on CCCn1nc(C(=O)OCn2nnc3ccccc3c2=O)c2ccccc2c1=O yielded a z-score of -0.347. CCc1nc(NCc2cccnc2)c2oc3ccccc3c2n1 was tested, and the z-score was -0.638. With CC(C)COC(=O)c1nnsc1NC(=O)Nc1ccccc1 the z-score was 0.142. CCN1CCN(C(=O)c2ccc(Cl)c(S(=O)(=O)N3CCOCC3)c2)CC1 gave a z-score of -0.568. Work on COC(=O)c1[nH]c2ccc(Br)cc2c1NC(=O)CN1CCCCC1CCO (stereo not given) yielded a z-score of -0.0868. In the case of Oc1ccc(-c2n[nH]c(=S)n2-c2ccc3c(c2)OCCO3)cc1, the z-score is reported as -0.229.
